# Laboratory results from publication PMC12820563, “FoxP3 forms a head-to-head dimer in vivo and stabilizes its multimerization on adjacent microsatellites”.
# Some of the results follow.
# Molecular target: T1, MBP-FoxP1dN (Mus musculus, UniProt P58462 326-579)
# T1 sequence: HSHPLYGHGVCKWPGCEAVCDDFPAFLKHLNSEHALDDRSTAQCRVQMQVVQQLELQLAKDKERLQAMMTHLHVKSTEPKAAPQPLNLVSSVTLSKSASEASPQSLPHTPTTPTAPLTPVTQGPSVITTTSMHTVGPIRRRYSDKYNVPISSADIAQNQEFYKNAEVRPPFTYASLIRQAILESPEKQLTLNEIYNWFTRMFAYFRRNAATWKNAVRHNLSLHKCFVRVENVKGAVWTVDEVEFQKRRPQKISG
# Experiment: PD-seq (MBP pull-down with sequencing); 20 mM Tris-HCl pH 7.5, 100 mM NaCl, 1.5 mM MgCl2, 0.4 uM protein, 0.1 uM dsDNA library, 30 min, room temperature, amylose pull-down; high values mean tight binding
# Conditions: protein: recombinant; tags: His6-MBP; chain copies: 2; dsDNA, one strand shown
# Summary of the method: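 In Tris pH 7.5 buffer with NaCl and MgCl2, 0.4 µM His6-MBP-tagged mouse FoxP3 or FoxP1 fragment lacking the N-terminus, from E. coli, met 0.1 µM Klenow-filled double-stranded degenerate DNA library for 30 min at room temperature. Three washes on amylose resin followed capture of the complexes, then proteinase K release of DNA, PCR barcoding and Illumina sequencing. Binding is taken as pooled-replicate reads-per-million enrichment of pull-down relative to input.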
row,Sequence,binding signal
1,GATGATTGTTCTCCCAGCTGATGAATTATTTAGGTCGAGTAAACAAATTTTCCTAATCTTTCTGTTCAAGCGCCATCTAC,1.3 RPM ratio (pull-down/input)
2,GATGATTGTTCTCCCAGCTGATGAATTAGATAATTCGAGTAAACAAATTTTCCTAATCTTTCTGTTCAAGCGCCATCTAC,1.04 RPM ratio (pull-down/input)
3,GATGATTGTTCTCCCAGCTGATGAATTGGTTTGATCGAGTAAACAAATTTTCCTAATCTTTCTGTTCAAGCGCCATCTAC,0.97 RPM ratio (pull-down/input)
4,GATGATTGTTCTCCCAGCTGATGAATTGCTGAAATCGAGTAAACAAATTTTCCTAATCTTTCTGTTCAAGCGCCATCTAC,1.1 RPM ratio (pull-down/input)
5,GATGATTGTTCTCCCAGCTGATGAATTTGGTATATCGAGTAAACAAATTTTCCTAATCTTTCTGTTCAAGCGCCATCTAC,1.23 RPM ratio (pull-down/input)
6,GATGATTGTTCTCCCAGCTGATGAATTACGGCATTCGAGTAAACAAATTTTCCTAATCTTTCTGTTCAAGCGCCATCTAC,1.15 RPM ratio (pull-down/input)
7,GATGATTGTTCTCCCAGCTGATGAATTAGAGTTTTCGAGTAAACAAATTTTCCTAATCTTTCTGTTCAAGCGCCATCTAC,1.11 RPM ratio (pull-down/input)
8,GATGATTGTTCTCCCAGCTGATGAATTCATATGGTCGAGTAAACAAATTTTCCTAATCTTTCTGTTCAAGCGCCATCTAC,0.907 RPM ratio (pull-down/input)
9,GATGATTGTTCTCCCAGCTGATGAATTAAGTCGTTCGAGTAAACAAATTTTCCTAATCTTTCTGTTCAAGCGCCATCTAC,0.923 RPM ratio (pull-down/input)
10,GATGATTGTTCTCCCAGCTGATGAATTGTTGCAATCGAGTAAACAAATTTTCCTAATCTTTCTGTTCAAGCGCCATCTAC,1.87 RPM ratio (pull-down/input)
11,GATGATTGTTCTCCCAGCTGATGAATTATCCGTTTCGAGTAAACAAATTTTCCTAATCTTTCTGTTCAAGCGCCATCTAC,0.979 RPM ratio (pull-down/input)
12,GATGATTGTTCTCCCAGCTGATGAATTTTCGCATTCGAGTAAACAAATTTTCCTAATCTTTCTGTTCAAGCGCCATCTAC,1.32 RPM ratio (pull-down/input)
13,GATGATTGTTCTCCCAGCTGATGAATTAGATGCGTCGAGTAAACAAATTTTCCTAATCTTTCTGTTCAAGCGCCATCTAC,1.47 RPM ratio (pull-down/input)
14,GATGATTGTTCTCCCAGCTGATGAATTGTCTAGTTCGAGTAAACAAATTTTCCTAATCTTTCTGTTCAAGCGCCATCTAC,1.06 RPM ratio (pull-down/input)
15,GATGATTGTTCTCCCAGCTGATGAATTGTCGCCCTCGAGTAAACAAATTTTCCTAATCTTTCTGTTCAAGCGCCATCTAC,0.934 RPM ratio (pull-down/input)
16,GATGATTGTTCTCCCAGCTGATGAATTACCCTGGTCGAGTAAACAAATTTTCCTAATCTTTCTGTTCAAGCGCCATCTAC,0.836 RPM ratio (pull-down/input)
17,GATGATTGTTCTCCCAGCTGATGAATTGGTCTTATCGAGTAAACAAATTTTCCTAATCTTTCTGTTCAAGCGCCATCTAC,0.982 RPM ratio (pull-down/input)
18,GATGATTGTTCTCCCAGCTGATGAATTCCCTGTCTCGAGTAAACAAATTTTCCTAATCTTTCTGTTCAAGCGCCATCTAC,0.738 RPM ratio (pull-down/input)
19,GATGATTGTTCTCCCAGCTGATGAATTCGCCGATTCGAGTAAACAAATTTTCCTAATCTTTCTGTTCAAGCGCCATCTAC,0.86 RPM ratio (pull-down/input)
20,GATGATTGTTCTCCCAGCTGATGAATTGCTACTGTCGAGTAAACAAATTTTCCTAATCTTTCTGTTCAAGCGCCATCTAC,1.11 RPM ratio (pull-down/input)

row,Sequence,binding signal
1,GATGATTGTTCTCCCAGCTGATGAATTGGTCGTCTCGAGTAAACAAATTTTCCTAATCTTTCTGTTCAAGCGCCATCTAC,0.797 RPM ratio (pull-down/input)
2,GATGATTGTTCTCCCAGCTGATGAATTCCCTGCCTCGAGTAAACAAATTTTCCTAATCTTTCTGTTCAAGCGCCATCTAC,0.856 RPM ratio (pull-down/input)
3,GATGATTGTTCTCCCAGCTGATGAATTACAGATATCGAGTAAACAAATTTTCCTAATCTTTCTGTTCAAGCGCCATCTAC,1.15 RPM ratio (pull-down/input)
4,GATGATTGTTCTCCCAGCTGATGAATTGCACGCCTCGAGTAAACAAATTTTCCTAATCTTTCTGTTCAAGCGCCATCTAC,1.17 RPM ratio (pull-down/input)
5,GATGATTGTTCTCCCAGCTGATGAATTCCCTAACTCGAGTAAACAAATTTTCCTAATCTTTCTGTTCAAGCGCCATCTAC,0.857 RPM ratio (pull-down/input)
6,GATGATTGTTCTCCCAGCTGATGAATTAGTGGTATCGAGTAAACAAATTTTCCTAATCTTTCTGTTCAAGCGCCATCTAC,1.06 RPM ratio (pull-down/input)
7,GATGATTGTTCTCCCAGCTGATGAATTGCATGAATCGAGTAAACAAATTTTCCTAATCTTTCTGTTCAAGCGCCATCTAC,1.15 RPM ratio (pull-down/input)
8,GATGATTGTTCTCCCAGCTGATGAATTGACGTGCTCGAGTAAACAAATTTTCCTAATCTTTCTGTTCAAGCGCCATCTAC,1.12 RPM ratio (pull-down/input)
9,GATGATTGTTCTCCCAGCTGATGAATTCCCGATTTCGAGTAAACAAATTTTCCTAATCTTTCTGTTCAAGCGCCATCTAC,0.844 RPM ratio (pull-down/input)
10,GATGATTGTTCTCCCAGCTGATGAATTGATCATTTCGAGTAAACAAATTTTCCTAATCTTTCTGTTCAAGCGCCATCTAC,1.08 RPM ratio (pull-down/input)
11,GATGATTGTTCTCCCAGCTGATGAATTACTCCTTTCGAGTAAACAAATTTTCCTAATCTTTCTGTTCAAGCGCCATCTAC,1.15 RPM ratio (pull-down/input)
12,GATGATTGTTCTCCCAGCTGATGAATTCTGCGAGTCGAGTAAACAAATTTTCCTAATCTTTCTGTTCAAGCGCCATCTAC,0.898 RPM ratio (pull-down/input)
13,GATGATTGTTCTCCCAGCTGATGAATTAGCTCGCTCGAGTAAACAAATTTTCCTAATCTTTCTGTTCAAGCGCCATCTAC,0.846 RPM ratio (pull-down/input)
14,GATGATTGTTCTCCCAGCTGATGAATTGGATCAATCGAGTAAACAAATTTTCCTAATCTTTCTGTTCAAGCGCCATCTAC,0.959 RPM ratio (pull-down/input)
15,GATGATTGTTCTCCCAGCTGATGAATTTACTATTTCGAGTAAACAAATTTTCCTAATCTTTCTGTTCAAGCGCCATCTAC,1.55 RPM ratio (pull-down/input)
16,GATGATTGTTCTCCCAGCTGATGAATTTAAGTATTCGAGTAAACAAATTTTCCTAATCTTTCTGTTCAAGCGCCATCTAC,0.979 RPM ratio (pull-down/input)
17,GATGATTGTTCTCCCAGCTGATGAATTCAGTTCTTCGAGTAAACAAATTTTCCTAATCTTTCTGTTCAAGCGCCATCTAC,0.862 RPM ratio (pull-down/input)
18,GATGATTGTTCTCCCAGCTGATGAATTGGTTCATTCGAGTAAACAAATTTTCCTAATCTTTCTGTTCAAGCGCCATCTAC,0.949 RPM ratio (pull-down/input)
19,GATGATTGTTCTCCCAGCTGATGAATTAAAAATTTCGAGTAAACAAATTTTCCTAATCTTTCTGTTCAAGCGCCATCTAC,1.04 RPM ratio (pull-down/input)
20,GATGATTGTTCTCCCAGCTGATGAATTCGAGTTATCGAGTAAACAAATTTTCCTAATCTTTCTGTTCAAGCGCCATCTAC,0.96 RPM ratio (pull-down/input)
